# Source: the supplement of paper PMC11417369
# This is one part of the list.
# System: PF3D7_0420300 AP2 domain 1 (GST-tagged)
# Test: gcPBM binding intensity (ln(normalized median fluorescence intensity)); higher = stronger DNA binding
# Summary of the method: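 In this array assay, P. falciparum DNA-binding domains with a GST tag, expressed in E. coli, were applied for 1 h to primer-extended double-stranded 36-bp intergenic genomic probes and negative controls on an Agilent 4 × 180k array. Bound protein was visualised with Alexa488 anti-GST antibody at 488 nm. Binding intensity is the highest Masliner-normalised natural-log median intensity across replicate spots of either probe orientation.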
row,Sequence,gcPBM binding intensity (ln)
1,TATATATAAATATGCTGTACGTTTTAATACGTTAAG [XGTACX_site2378],8.92
2,TTCTGACCAATGCTATAAAATAATACAAAAGAAAAA [GTGCAC_negctrl_site3],9.05
3,TGAAGAGGAAACAAACAAAATGAATAATTAAAAAGG [CACACA_negctrl_site1601],9.36
4,TATATCCACATTTTTAGTACTTAAAAATAAATAAAC [XGTACX_site3826],9.06
5,AAGGAAAACAATAGGTGTACCAAACGTCCTAGGAAC [XGTACX_site5732],9.69
6,TTTCTTCATTTTTTCACACATAAGAAAATATAATCA [CACACA_site4275],8.91
7,AAAAAAGCAATATGATGTACATTTACTTTGTGAAAG [XGTACX_site4450],9.27
8,TAAAAAAATAAAATTACACACATATATAAATATATA [CACACA_site2620],9.47
9,ATATATAAATATATTTGTACATATAATATGTATTAT [XGTACX_site8820],9.21
10,CTAGGTATGCTTTAAACATGCAAAAATACAAATTAC [TGCATGCA_site239],9.26
11,AAATATTATAAAAAGGTGCATTTTTATTATATGAGT,9.23
12,TTTTGTTATAATAAAGTGCATTTAGTCGGGTTACAA [GTGCAC_site9779],9.09
13,ATATATGTTTTTATATGTACTTATAATGTGTGTATA [XGTACX_site5165],9.71
14,AATTTAAAAAAAATCACACACAGAAAAAAAAAAAAA [CACACA_site2322],9.51
15,ATTTATTAAATTTATAGTACTCAAAGATTTTTATTT [XGTACX_site6661],9.07
16,AAATAAAACAATTAACGTACAAGCATATATATATAT [XGTACX_site8508],9.56
17,TATATATATATTATATGTACACAAGGAAATATGCAT [XGTACX_site5637],9.43
18,TATGTATAATTATTTTGTACTTATTAAATTTTTTTT [XGTACX_site5413],9.18
19,AAATAAAAAAAAATAGCACACATAAATATATTATAT [CACACA_site8155],9.76
20,TTATAATCAATGAATACACACATATATTTCATTAAT [CACACA_site5909],9.32
21,TAATAATAGAGACACACACACATAGACATATAAATA [CACACA_site6729],10.2
22,ATCTATGAAAAAGGTACATGCAATAAAGAAACATAT [TGCATGCA_site805],9.63
23,TTATACTATTTTTATACATGCATTTCTATATATTTT [TGCATGCA_site316],9.61

row,Sequence,gcPBM binding intensity (ln)
1,TTCAAAATAAAAAATTCACACACATATATATATATA [CACACA_site8653],9.33
2,ATCTAAACAAATAATACACACAATAAAATAGGAAGA [CACACA_site4072],9.74
3,TGTGAATAAATAAGCACACATAAACCCATATATAAA [CACACA_site4103],9.54
4,TAATATTTACATATTACACACACGTATTATTAAATA [CACACA_site6340],9.55
5,TATTTTTTAAAAATGGGTACACATAAATAAATAAAT [XGTACX_site7643],9.23
6,ATTATTCATTTATGTAGTACATTTTAATACATTTAA [XGTACX_site3599],9.26
7,AAAAAAAAAAAAGTTACACACAAATAAAATATTTGG [CACACA_site694],9.47
8,AAGAAAAATTTAAACTGTACTTGTTTTCCAATGAAC [XGTACX_site4443],9.14
9,ATAAAAAAAAATAAATGTACAAATTAACAAAATAAT [XGTACX_site5048],9.53
10,AATCACCAAATATGTACACACCTTAACATGTTTATA [CACACA_site5180],9.64
11,TTATAATATGGATACACACACATATATAAATATATA [CACACA_site5314],9.84
12,AAAAAATAAATAAATACACACAAATCTATATTTATA [CACACA_site7243],9.51
13,ATCTAAATTTTTCCATGTACATATACTTTTATGCAT [XGTACX_site2683],9.4
14,AAAATATGTAGACACATACACACATATATATATATA [CACACA_site1221],9.51
15,TTTTTTTTTTCAAATGCATGCAAAAAAAAAAAAATA [TGCATGCA_site945],8.68
16,TTTTCTTTTTCCAAAAGTACGTAATTTAAACATTTT [XGTACX_site2066],8.91
17,TATATGTATGTTTGTTTGTTTGTATTTTTTAAGGTA [XGTACX_negctrl_site619],9.65
18,ATAATTATGAAGCATACATGCATGTCCTGGCTTAAA [TGCATGCA_site491],9.11
19,AAATTAGAAATACCTACACACTTATCAAAATAAATT [CACACA_site7132],9.57
20,CTAAAATACGGACACACACACACATATATATATATA [CACACA_site6138],10.2
21,ATTATCTCCGCCATGTGGACACATATAAGACATTTT [XGTACX_site2889],9.28
22,ATTGTATATAAATGAGTGCATACTATGTTGTTCTTA [GTGCAC_site9678],9.26
23,TATGTAAATCTCTTAAGAATTCGCTATATCTCTTTT [CACACA_negctrl_site1180],9.09

row,Sequence,gcPBM binding intensity (ln)
1,ATATAAGCGTATACATGTACATATATATCTTTGTAA [XGTACX_site2742],9.25
2,AGGCTACGAATAGAATGTACCCGAAATAAGGAATAT [XGTACX_site6012],9.21
3,GCAAGGAAATAATTGATAATATATATATATATATAT [GTGCAC_negctrl_site400],9.09
4,GAGTAAATAAATAAATGTACATATATATATATTATC [XGTACX_site8466],9.38
5,AATATATATATATATATATATTTTTGTTAGAATATG [XGTACX_negctrl_site58],8.96
6,ATACATAAATATTGATGTACTCATTTAATATATTAT [XGTACX_site3992],9.22
7,TATAATAAATATTAACGTACTCATATATATATATAT [XGTACX_site3871],9.25
8,CAATCTTTTACGAATACACACACATAAAGAAAAAAA [CACACA_site8367],9.71
9,TTAAATAAATAAAAATGTACATGCATATATAAATAT [XGTACX_site8908],9.34
10,AATTTTTTATATGTCACACATTTGTTATTATTATTA [CACACA_site4197],9.56
11,ACATATAGAAGTATCTATAAACAGTGATAGCATTTT [CACACA_negctrl_site1122],9.21
12,AAAAAGAATAAATAAATATAAATAAATAAATATATA [GTGCAC_negctrl_site336],9.19
13,AAAAAAAAATGTCATGGTACACAATTTTTTCTTTTT [XGTACX_site4505],9
14,TAAAGTAAAACAAGGTAAGGTTTTTCTTTTTCTTTT [CACACA_negctrl_site1271],9
15,TAGATTATTTTATTTAGTACATAAAAAAGTAAGACC [XGTACX_site7889],9.28
16,AATAAATTATGAACGGTGCAGGAAAAATTGTAACAT,9.82
17,AAACATAAGGGACACACACACATATATATATATATA [CACACA_site5920],9.75
18,CAAAAAAACAAACACACACACACACCGATATATATA [CACACA_site9218],10.2
19,TGAAGTGCAAAATACTGTACGTAATGTGCTTGTTAC [XGTACX_site4512],9.26
20,CATTATGTCGTAAATACACACATACAGATACATACA [CACACA_site4880],9.59
21,AAATTAAATAAATTTACACACTAAAAATTACAGATA [CACACA_site4722],9.48
22,GTTATATATAATAATTGTACAAAATTAAATATAACT [XGTACX_site4189],9.16
23,AAAAAACACCCACATACACACAAAAATGTTATAAAT [CACACA_site81],9.94

row,Sequence,gcPBM binding intensity (ln)
1,TTTTTATTTGGTTGTGTACACATATATATATATATA [CACACA_site5844],9.45
2,CTAAGAAAAAATAAAGCACACAAATATTTTAAAAAC [CACACA_site9094],9.71
3,AAAACACAAAAAAAATGTACACATATATATATATAT [XGTACX_site8509],9.29
4,TAACTATATTTTTACTGTACAAAAAAATTAAATAAT [XGTACX_site1765],9.02
5,ATATTAATTCTACATTGTACACATGAAAAAATATAA [XGTACX_site8759],9.21
6,ATACAATTTATTTTAACACACGAATGAATTGATTAT [CACACA_site4160],9.39
7,ATACAAATATACTTTTGTACGAAGAAATATATATAT [XGTACX_site3912],9.19
8,ATAAAAAAAATAAAAAGTACAAAAAAAAAAAATGGA [XGTACX_site136],9.74
9,TAAAGAAACTATTCAACACACGGTCTAATTATTACA [CACACA_site1064],9.33
10,AAAAATAAACGACAGTGTACTAAATATTTAATTTTC [XGTACX_site3580],9.47
11,TATTCTAAAGAAATTACACACATGCAATGAAAAAAA [CACACA_site6895],9.41
12,CAGGGCAGGGGGAAGGGTACACATAAAAGAAAATAA [XGTACX_site172],9.51
13,TATAAATATATATTTTGTACTTAATATAAATTTATA [XGTACX_site7996],8.98
14,AAAAAAAAATATAACAGTACATAAACATATGAATAT [XGTACX_site7093],9.48
15,TCAACCAAAACATAAGCATGCAATATATTTTTATAC [TGCATGCA_site560],9.31
16,TTTTATAATTTCTTCTGTACATATATATGAAAATAT [XGTACX_site74],9.08
17,TTATATATTTTTATGTGTACTTATATATATATATAT [XGTACX_site6211],9.32
18,ATTTCCCTATATAGAGCATGCACTATATTCAAATGA [TGCATGCA_site531],9.05
19,AACAAAAACACTTTTACACACATAAGTAAAATATAT [CACACA_site1994],9.81
20,TACTTATTTAAAATAGTGCATGAATAGAAGATATAT [GTGCAC_site9756],9.17
